Source: a collection of fitness landscapes (doi:10.1016/j.celrep.2020.107928)
In all, about 81,000 sequences were measured (“one-hybrid fitness for binding NBS DNA”: median about -0.1, highest 2% from about 0.36 on). This is one part of the list.

B1: Caulobacter ParB omega fusion; a variant is named by its letters at X, in order, B8GW30 (parent)
chain: MESVVVGEPGMSEGRRGLGRGLSALLGEVDAAPAQAPGEQLGGSREAPIEILQRNPDQPRRTFREEDLEDLSNSIREKGVLQPILVRPSPDTAGEYQIVAGERAWRAAQRAGLKTVPIMVRELDDLAVLEIGIIENVQRADLNVLEEALSYKVLMEKFERTQENIAQTIGKSXSHVANXMRLLXLPDEVQSYLVSGELTAXHARAIAAAADPVALAKQIIEGGLSVRETEALARKAPNLSAGKSKGGRPPRVKDTDTQALESDLSSVLGLDVSIDHRGSTGTLTITYATLEQLDDLCNRLTRGI

Variants of: B1
Experiment: one-hybrid fitness for binding NBS DNA (the Noc-binding site; scaled: cognate 1, non-cognate 0); higher = stronger binding
Details: with NBS DNA site
Procedure, shortened: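 The reporter was HIS3, with the binding site 19 bp from the promoter, in E. coli USO used for bacterial one-hybrid selection of Caulobacter ParB libraries with four specificity codons randomised. Growth was on M9 lacking histidine, with 0.1 mM IPTG and 5 mM 3-AT, for 48 hours at 37°C. Illumina sequencing covered plasmids before and after selection; three replicate libraries were pooled and variants with under 10 reads dropped. A fitness score is the log change in variant-to-wild-type read ratio, rescaled to the cognate and non-cognate references.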

Variant | one-hybrid fitness for binding NBS DNA
QLVL | ≤ 0.2
FNQT | ≤ 0.2
YSLG | ≤ 0.2
AMCA | ≤ 0.2
PMSC | ≤ 0.2
TFTY | ≤ 0.2
CGGW | ≤ 0.2
YLEP | ≤ 0.2
RAEQ | ≤ 0.2
LTRP | ≤ 0.2
TMET | ≤ 0.2
TSLL | ≤ 0.2
MTLT | ≤ 0.2
LTHP | ≤ 0.2
QRIR | 0.686
MCNA | ≤ 0.2
VTPK | ≤ 0.2
RHTN | ≤ 0.2
KFPS | ≤ 0.2
LNFF | ≤ 0.2
YVWT | ≤ 0.2
ANMD | ≤ 0.2
ETLS | ≤ 0.2
CFPS | ≤ 0.2
GSNA | ≤ 0.2

Variant | one-hybrid fitness for binding NBS DNA
ADHR | ≤ 0.2
GSSR | ≤ 0.2
KDLG | ≤ 0.2
PGCY | ≤ 0.2
PADD | ≤ 0.2
RCQR | 0.512
MAVG | ≤ 0.2
KWLR | ≤ 0.2
GTSE | ≤ 0.2
GTSG | ≤ 0.2
DKYW | ≤ 0.2
QPFN | ≤ 0.2
FRHP | ≤ 0.2
MDLG | ≤ 0.2
IHLT | ≤ 0.2
WTAD | ≤ 0.2
ADWE | ≤ 0.2
RAYF | ≤ 0.2
THSK | ≤ 0.2
HIYG | ≤ 0.2
SVCG | ≤ 0.2
QRFF | ≤ 0.2
FPGM | ≤ 0.2
PNHD | ≤ 0.2
KHPY | ≤ 0.2

Variant | one-hybrid fitness for binding NBS DNA
GTIK | ≤ 0.2
PRID | ≤ 0.2
QNAK | ≤ 0.2
PQWY | ≤ 0.2
EIGS | ≤ 0.2
DYPC | ≤ 0.2
WRLT | ≤ 0.2
SMDC | ≤ 0.2
SRCW | ≤ 0.2
CAPD | ≤ 0.2
RCKA | 0.423
FYKR | ≤ 0.2
PGMG | ≤ 0.2
NNNT | ≤ 0.2
GKTC | ≤ 0.2
RSGL | ≤ 0.2
HWHE | ≤ 0.2
NISV | ≤ 0.2
QRYY | 0.433
PNVA | ≤ 0.2
LKQL | ≤ 0.2
YIHA | ≤ 0.2
YKAL | ≤ 0.2
GPRG | ≤ 0.2
SQNS | ≤ 0.2

Variant | one-hybrid fitness for binding NBS DNA
NSDS | ≤ 0.2
RFWR | ≤ 0.2
TRCI | ≤ 0.2
AFFS | ≤ 0.2
KFTC | ≤ 0.2
RGGF | ≤ 0.2
QKWG | ≤ 0.2
RVTV | ≤ 0.2
CHCC | ≤ 0.2
FRFV | ≤ 0.2
YTPV | ≤ 0.2
PMHE | ≤ 0.2
QHKH | 0.546
MDYS | ≤ 0.2
KAGE | ≤ 0.2
HKRC | ≤ 0.2
INCR | ≤ 0.2
VAML | ≤ 0.2
ISMT | ≤ 0.2
LLGL | ≤ 0.2
SDVS | ≤ 0.2
APWL | ≤ 0.2
GSFT | ≤ 0.2
PGQC | ≤ 0.2
MGSM | ≤ 0.2

Variant | one-hybrid fitness for binding NBS DNA
LHLE | ≤ 0.2
CAES | ≤ 0.2
YSPF | ≤ 0.2
RCHY | 0.215
MPVT | ≤ 0.2
HVIK | ≤ 0.2
KWPC | ≤ 0.2
PMYC | ≤ 0.2
VHLI | ≤ 0.2
RTCA | 0.222
PGST | ≤ 0.2
GHSV | ≤ 0.2
PGKA | ≤ 0.2
IMHV | ≤ 0.2
RVEN | ≤ 0.2
YCPG | ≤ 0.2
CKRG | ≤ 0.2
RLIS | ≤ 0.2
LRKQ | ≤ 0.2
MHMC | ≤ 0.2
YIQS | ≤ 0.2
WVAN | ≤ 0.2
PKIG | ≤ 0.2
PSPD | ≤ 0.2
NCGT | ≤ 0.2

Variant | one-hybrid fitness for binding NBS DNA
CGAM | ≤ 0.2
RSGH | ≤ 0.2
LYRN | ≤ 0.2
YSQA | ≤ 0.2
DGRN | ≤ 0.2
PTAV | ≤ 0.2
YSSW | ≤ 0.2
GLND | ≤ 0.2
GHQS | ≤ 0.2
HKNC | ≤ 0.2
KYME | ≤ 0.2
IKSC | ≤ 0.2
VRVQ | ≤ 0.2
EPFM | ≤ 0.2
YPVY | ≤ 0.2
YCDA | ≤ 0.2
PITR | ≤ 0.2
KPSN | ≤ 0.2
TSGC | ≤ 0.2
WTHG | ≤ 0.2
PPVY | ≤ 0.2
MYTW | ≤ 0.2
LKAI | ≤ 0.2
IDNT | ≤ 0.2
LKPN | ≤ 0.2

Variant | one-hybrid fitness for binding NBS DNA
DQLG | ≤ 0.2
GSSL | ≤ 0.2
GMAR | ≤ 0.2
QQDI | ≤ 0.2
SQSD | ≤ 0.2
QFRC | ≤ 0.2
GVPA | ≤ 0.2
CPVW | ≤ 0.2
NAQW | ≤ 0.2
CCAY | ≤ 0.2
SRPW | ≤ 0.2
VNPP | ≤ 0.2
QKLE | ≤ 0.2
AIAH | ≤ 0.2
APEF | ≤ 0.2
QLQH | ≤ 0.2
GCTK | ≤ 0.2
PMML | ≤ 0.2
EACF | ≤ 0.2
PLPV | ≤ 0.2
DYMS | ≤ 0.2
WWEG | ≤ 0.2
THSR | ≤ 0.2
ERPF | ≤ 0.2
KRIR | 0.378

Variant | one-hybrid fitness for binding NBS DNA
SYRC | ≤ 0.2
MHNS | ≤ 0.2
KMMR | ≤ 0.2
DEAM | ≤ 0.2
PPWV | ≤ 0.2
QNRN | ≤ 0.2
HHAT | ≤ 0.2
SGKW | ≤ 0.2
QVTV | ≤ 0.2
LAVP | ≤ 0.2
MKHV | ≤ 0.2
PKLA | ≤ 0.2
KTHT | ≤ 0.2
IQQG | ≤ 0.2
HGSL | ≤ 0.2
HILF | ≤ 0.2
HQNG | ≤ 0.2
SDRY | ≤ 0.2
WPDR | ≤ 0.2
KKGG | ≤ 0.2
